Data taken from the RNAGym collection of RNA variant scans (doi:10.1073/pnas.2313332121).
This sample is rich in variants without activity.

B1: TPR 5TU (parent)
chain: GGAUCUUCUCGAUCUAACAAAAAAGACAAAUCUGCCACAAAGCUUGAGAGCAUCUUCGGAUGCAGAGGCGGCAGCCUUCGGUGGCGCGAUAGCGCCAACGUUCUCAACUAUGACACGCAAAACGCGUGCUCCGUUGAAUGGAGUUUAUCAUG

Variants of: B1
Experiment: polymerase ribozyme fitness, log enrichment relative to wild type (log ratio); higher = more active; in vitro selection for triplet polymerase activity
Outline: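 Each subunit of a heterodimeric triplet polymerase ribozyme was mutagenized into a library by PCR, transcribed, and subjected to one round of in vitro selection, run in triplicate. Libraries were annealed with a biotinylated primer, the partner subunit and triplets, incubated frozen at −7 °C, and extended constructs were gel-excised, captured on streptavidin beads and recovered by RT-PCR. Input and output libraries were sequenced on Illumina, keeping genotypes with ≥10 input reads and ≥1 read per output. Fitness is log base 2 of genotype enrichment divided by wild-type enrichment, from inverse-variance-weighted replicate averages.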

Polymerase ribozyme fitness (log ratio), ≤ -4.2:
GGAUCUUCUCGAUCUAACAAAAAAGACGAAUCUGCCACAACGCUUGAGAGCAUCUUCGGAUGCAGAGGCGGCAGCCUUCGAUGGCGCGAUAGCGGCAACGUUCUCAACUAUGACACGCAAAACGCGUGCUCCGUUGAAUGGAGUUUAUCAUG
GGAUCUUCUCGAUCUAACAAAAAAGACGAAUCUGCCACAAAGCUUGGGAGGAUCUUCGGAUGCAGAGGCAGCAGCCUUCGGUGGCGCGAUAGGGCCAACGUUCUCACCUAUGACACUCACAACGCGUGCUCCGUUGAAUGGAGUUUAUCAUG
GGAUCUUCUCGAUCUAACAAAAAAGACGAAUCUGCCACAAAGCUUGGGAGCAUCUCCGGAUGCAGAGGCGGCAGCCUUAGGUGGCGCGAUAGCGCCAACGUCAUCAACGAUGAUACGCAAAACGCGUACUCCGUUGAAUGGAGUUUAUCAUG
GGAUCUUCUCGAUCUAACAAAAAAGACGAAUCUGCCACAAAGCUUGUGAGCAUCUUCGGGUGCAGAGGCGGCAGCCUUCGGUGGAGGGAUAGCGCCAACGUUCUCAACUAUGACAAGCAAAACGCGUGCUCCGUUGAAUGCAGUUUAUCAUG
GGAUCUUCUCGAUCUAACAAAAAAGACGAAUCUGCCACAAAGCUUGAGAGCCUCUUCGGAUCCAGAGGCGGCAGCCUUCGGUGGAUCGAUAGCGCCAACGUUCUCGACUAUGACACACAAAACGCGUGCUCCGUUUAAUGGAGUUUAACAUG
GGAUCUUCUCGAUCUAACAAAAAAGACGAAUCUGCCACAAAGCUUGAGAGCGUCUUCGGAUGCAGAGGCGGCAGCCUUCGGUGGCGCGAUAGCGCCAACGUUCUCAACUGUGACACGCAAAACACGUGCUCCGUUGAAUGGAGUUUAUCAUG
GGAUCUUCUCGAUCUAACAAAAAAGACGAAUCUGCCACAAAGCUUGAGAGCAUCUUCGGAUGCAGAGGCGGCAGCCUUCGGUGGCGCGAUGGCGCCAACGUUCUCAACUAUUACACGCAAAACGCGUGCUCCGUUGAAUGGAGUUUAUCAUG
GGAUCUUCUCGAUCUAACAAAAAAGACGAAUCUGCUACAAAGCUUGAGAGCAUCUUCGGAUGCAGAGGGGGCAGCCUUCGGUGGCGCGAUAGCGCCAACGUUCUCAACUAUGACACGCAAAACGCGUGCUCCGUUGAAUGGUGUUUAUCAUG
GGAUCUUCUCGAUCUAACAAAAAAGACGAAUCUGCCACAAAGCUUGAGAGGAUAUUCGGAUGCAGAGGCGGCAGCCUUCGGUGGCGCCAUAGCGGCAACGUUCUCAACUAUGACACGCAAAACGCGUGCUACGUUGAAUGGAGUUUAUCAUG
GGAUCUUCUCGAUCUAACAAAAAAGACGAAUCUGCCACAAAGCUUGAGAGCAUUUUCGGAUGCAGAGGCGGCGGCCUUCAGUGGCGCGAUAGCGCCAACGUUCUCAACUAUGACACGCAAAACGCGUGCUCCGUUGAAUGGAGACUAUCAUG
GGAUCUUCUCGAUCUAACAAAAAAGACGAAUCUGCCACAAAGCUUGAGAGCAUUUUCGGAUGCAGAGGCGGCAGCCUUCGGUGGCGCGAUAGCGCCAUCGUUCUCAACUAUGACACGUAAAACGCGUGCUCCUUUGAAUGGAGUUUAUCAUG
GGAUCUUCUCGAUCUAACAAAAAAGACGAAUCUGCCACAAAGCUUGAGAGCAUCUUAGGAUGCAGAGGCGGCAGCCUUCGGUGGUGCGAUAGCGCCAGCGUUCUCAACUAUGACACGCAAAACGCGUGCUCCGUUGUAUGGAGUUUAUCAUG
GGAUCUUCUCGAUCUAACAAAAAAGACGAAUCUGCCACAAAGCUUGAGAGCAUCUUUGGAUGCAGAGGCGGCAGCCUUCGGUGGCGCGAUAGCGCCAACGUUCUCAACUAUGACACGCAAUACGCGUGCUCCGUUGAAUGGAGUUUAUCAUG
GGAUCUUCUCGAUCUAACAAAAAAGACGAAUCUGCCACAAAGCUUGAGAGCAUCUUCGGAUGCAGAGGUCGCAGCCUUCCGUGGCGCGAUAGCGCCAACGUUCUCAACUAUGACACGCAAAACGCGGGCUCCGUUGAAUGGAGUUUAUCAUG
GGAUCUUCUCGAUCUAACAAAAAAGACGAAUCUGCCACAAAGCUUGAGAGCAUCUUCGGAUGCAGAGGCGGCAGACUUCGCUGGCGCGAUAUCGCCAACGUUCUCAACUAUGAAUCGCAAAACGCGUACUCCGUUGAAUGGAGUUUAUCAUG
GGAUCUUCUCGAUCUAACAAAAAAGACGAAUCUGCCACAAAGCUUGAGAGCAUCUUCGGAUGCAGAGGCGGCAGCGUUAGGUGGCGCGAUAGCGCCAACGUUCUCAACUAUGACACGCAAAACGCGUGCUCCGUUGAAUGGAGUUUAUGAUG
GGAUCUUCUCGAUCUAACAAAAAAGACGAAUCUGCCACAAAGCUUGAGAGCAUCUUCGGAUGCAGAGGCGGCAGCCUUCGGUGGCGCGAUAGCGCCAACGUUCUCAAUUAUGACACGCAAAGCGCGUGCUCCGUUGAGUGGAGUUUAUCAUG
GGAUCUUCUCGAUCUAACAAAAAAGACGAAUCUCCCACAAAGCUUGAGAGCAUCUUCGGAUGCAGAGGCGGCAGCCUUCGGUGGCGCGAUAGCGCCAACGUUCUCAACUAUGACACGCAAAACGCGUGCUCCGUUGAAUGGAGUUUAUCAUG
GGAUCUUCUCGAUCUAACAAAAAAGACGAAUCUGCCACAAAGCUUGAGAACAUCUUCGGAUGCAGAGGCGGCAGCCUUCGGUGGCGCCAUAGCGCCAACGUUCUCAACUAUGACACGCAAAACGCGUGCUCUGUUGAAUGGAGUUUAUCAUG
GGAUCUUCUCGAUCUAACAAAAAAGACGAAUCUGCCACAAAGCUUGAGAGCAUCUUCGGAUGCAGAGACGGCAGUCUUCGGUGGCGCGAUAGCGCCAACGUUCUCAACUAUGACACGCAAAACGCGUGCUCCGUUGAAUGGAGUUUAUCAUG
GGAUCUUCUCGAUCUAACAAAAAAGACGAAUCUGCCACAAAGCUUGAGAGCAUCUUCGGAUGCAGAGGCGGCAGCCUUCGGUGUCGCGAUAGCGCCAACGUUCUCAACUAUGACACGGAAAACGCGUGCUCCGUUGAAUGGAGUUUAUCAUG
GGAUCUUCUCGAUCUAACAAAAAAGACGAAGCUGCCACAAAGCUUGAGAGCAUCUGCGGAUGCAGAGGCGGCAGCCUUCGGUGGCGCGAUAGCGUCAACGGUCUCAACUAUGACACGCAAAACGCGUGCUCCGUUAAAUGGAGUUUGUCAUG
GGAUCUUCUCGAUCUAACAAAAAAGACGAAUCUGCCACAAAGCUUGAGAGCAUCUUCGGAUGCAGAGGCGGCAGCCAUCGGUGGCGCGAUAGCGUCAACGUUCUCAACUAUGACACGCAAAACGCGUGCUCCGUUGAAUGGAGUUUAUCAUG
GGAUCUUCUCGAUCUAACAAAAAAGACUGAUCUGCCACAAAGCUUGAGAGCAUCUUUGGAUGCAGAGGCGGCAGCCUUCGGUGGCGCUAUAGCGCCAACGUUCUCAACUAUGACACGCAAAACGCGUGCUCCGUUGAUUGGAGUCUAUCAUG
GGAUCUUCUCGAUCUAACAAAAAAGACUGAUCUGCCACAAAGCUUGAAAGCAUCUUCGGAUGCAUAGGCGGCAGCCUUCGGUGGCGCGACAGCGCCAACGUUCUCAACUAUGACAGGCAAAACGCGUGCUCCGUUGCAUGGAGUUUAUCAUG
GGAUCUUCUCGAUCUAACAAAAAAGACUACUCUGCCACACCGCUUGAGAGCAUCUUCGCAUGCAGAGGCGGCAGCCUUCCGUGGCGCGAUAGCAGCAACAUUCUCAACUAUGACACGCAAAACGCGUGCUCCGUUGGAUGGAGUUUAUCAUG
GGAUCUUCUCGAUCUAACAAAAAAGACUAAUCUGCCCCAACCCUUGAGAGCAUCUUGGGAUGCAGAGGCGGCAGCCUUCGGUGGCGGGAUAGGGGCAACGUUAUCAACUAUGGCACGCAAAACGCGUGCUCCGUUGAAAGAAGUUUAUCAUG
GGAUCUUCUCGAUCUAACAAAAAAGACUAAUCUGCCCCAAAGCUUGAGAGCAACAUCGGAUGCAGAGGCGGCAGUCUUGGGUGGCGCGAUAGCGGCAACGUUCUUAACUAUGACACGCAAAACGCGUGCUCCGUUGAAUGUAGUUUAUCAUG
GGAUCUUCUCGAUCUAACAAAAAAGACUAAUCUGCCCCAAAGCUUGAGAGCAGCUUCGGAUGCAGAGGCGGCAGCCUUAGGUGGCGCGAUAGCGCCAACGGUCUCAACUAUGAGACGCAAAACGCGUGCUCCGUUGAAUGGAGUUUAUCAUG
GGAUCUUCUCGAUCUAACAAAAAAGACUAAUCUGCCACAACGCUUGAGAGCAUCUUCGGCUGCAGAGGCGGCAGCCUUCGGUGGCGCGAUGGCGCCAACGUUCUCAACUAUGACACGCAAAACGCGUGCUCCGUUGAAUGGAGUUUAUCAUG
GGAUCUUCUCGAUCUAACAAAAAAGACUAAUCUGCCACAACGCUUGAGAGCAUCUUCGGAUGCAGAUGCGGCAGCCUACGGUGGCGCAAUAGCGCGAACGUUCUCAUCUAUGACACCCAAAACGCGUGCUCCGUUGAAUGGAAUUUAUCAUG
GGAUCUUCUCGAUCUAACAAAAAAGACUAAUCUGCCACAAGGCUUGAGAGCAUCUUCGGAUGCAGAGGCGGCAGCCUUCGGUGGCGCGAUAGUGCCAACGUUCUCAACUAUGACUCGCAAAACGCGUGCUCCGUUGAAUGGAGUUUAUCAUG
GGAUCUUCUCGAUCUAACAAAAAAGACUAAUCUGCCACAAAGCUUGGGAGCAUCUUCGGAUGCUGAGGCGGCAGCUUUCGGUUGCGCGAUAGCGCCAACGUUCUCAACUAUGACACGCUAAACGCGUGGUCCGUUUAAUGGAGUUUAUCAUG
GGAUCUUCUCGAUCUAACAAAAAAGACUAAUCUGCCACAAAGCUUGAGCGCAUCUUCGGAUGCAGAGGCGGCAGCCUUCGGUGGUGCGAUAGCGCCAACGUUCUCAACUAUGACACGCAAAACGCGUGCUCCGUUGAAUGGAGUUUAUCAUG
GGAUCUUCUCGAUCUAACAAAAAAGACUAAUCUGCCACAAAGCUUGAGAGCAUCUUCGGAUGCAGGGGCGGCAGCCUUCGGUGGCGCGAUAGCGCCAACGUUCUCAACUAUCACACGCAAAACGCGUGCUCCGUUGAAUGAAGUUUAUCAUG
GGAUCUUCUCGAUCUAACAAAAAAGACUAAUCUGCCACAAAGCUUGAGAGCAUCUUCGGAUGCAGAGGCGGCGGCCUUCGGUGGCGUGAUAGCGCCAACGUUCUCAACUAUGACACGCAAAACGAGUGCUCCGCUGAAUGGAGGUUAUCAUG
GGAUCUUCUCGAUCUAACAAAAAAGACUAAUGUGCCACAACGCUUGAGAGCAUCUUCGGAACCAGAGGCCGCAGCAUUCGGUGGCGCGAUAGCGCCAACGUUCUUAACUAUGACACGCAAAACGAGUGCUCCAUUGAAUGGAGUUUAUCAUG
GGAUCUUCUCGAUCUAACAAAAAAGACUAAUGUGCCACAAAGCUUGAGAGCAACUUCGAAUGCAGAGGCGGCAGCCUUCGGUGGCGCGUUAGCGCUAACGUUCUCAACUAUGACACGCAAAACGCGUGCUCCGUUGAGUGGAGUUUAUCAUG
